# Reference: the supplement of paper PMC3334620
# Over roughly 33,000 sequences, “E-score (-0.5 to 0.5)” has its median near -0.012; the highest 2% begin near 0.29. This is one part of the list.
# Target: T1, Ybr033w (UniProt P38073)
# T1 sequence: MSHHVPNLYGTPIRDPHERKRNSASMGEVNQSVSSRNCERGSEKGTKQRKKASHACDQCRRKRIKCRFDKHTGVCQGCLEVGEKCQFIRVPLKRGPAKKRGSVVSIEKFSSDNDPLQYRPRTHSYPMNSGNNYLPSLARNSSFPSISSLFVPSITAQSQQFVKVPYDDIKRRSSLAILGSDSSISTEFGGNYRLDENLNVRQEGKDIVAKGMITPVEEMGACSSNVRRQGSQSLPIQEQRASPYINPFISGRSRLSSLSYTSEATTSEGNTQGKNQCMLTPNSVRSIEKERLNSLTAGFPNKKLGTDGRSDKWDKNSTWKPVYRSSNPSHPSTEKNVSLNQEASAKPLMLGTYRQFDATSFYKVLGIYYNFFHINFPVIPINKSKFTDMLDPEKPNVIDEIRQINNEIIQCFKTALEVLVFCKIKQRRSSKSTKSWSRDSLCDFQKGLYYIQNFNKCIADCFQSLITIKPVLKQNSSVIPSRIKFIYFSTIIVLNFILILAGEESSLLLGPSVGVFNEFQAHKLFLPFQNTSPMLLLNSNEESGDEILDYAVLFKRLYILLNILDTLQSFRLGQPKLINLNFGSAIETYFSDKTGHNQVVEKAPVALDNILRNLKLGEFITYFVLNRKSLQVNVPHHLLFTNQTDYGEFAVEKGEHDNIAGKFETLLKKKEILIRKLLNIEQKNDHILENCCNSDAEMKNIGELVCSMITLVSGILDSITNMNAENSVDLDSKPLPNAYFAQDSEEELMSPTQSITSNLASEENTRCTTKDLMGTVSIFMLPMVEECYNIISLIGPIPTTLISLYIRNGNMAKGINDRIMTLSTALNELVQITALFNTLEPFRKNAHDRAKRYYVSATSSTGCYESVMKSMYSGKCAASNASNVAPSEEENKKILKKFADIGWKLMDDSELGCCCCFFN
# Assay: PBM E-score (8-mer binding enrichment) (E-score (-0.5 to 0.5)); higher = stronger / more preferred TF binding; most listed sequences are background and not binding sites
# Conditions: protein concentration: 200 nM; construct: GST-full length
# Method in brief: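 Detection of bound protein used fluorescent anti-GST, with scans normalised by masliner. The proteins were GST-tagged yeast transcription factors applied at about 100-200 nM to universal all-10-mer Agilent arrays made double-stranded by primer extension. Each ungapped eight-base word, pooled with its reverse complement, was scored with an E-score from the Universal PBM Analysis Suite.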
row,Sequence,PBM E-score
1,CTCTCAAC,-0.0216
2,CACTGACC,-0.269
3,GTAACAAA,0.199
4,GCCTCTTA,-0.135
5,AGACTATC,0.116
6,ATTCAGTG,0.224
7,AGGCGTGC,-0.00418
8,TAGGGAGA,-0.159
9,AGCGCACG,-0.267
10,ACAGTAGG,0.0476
11,GCCTCTCC,-0.241
12,AATATTAG,0.228
13,GTCATCAC,-0.105
14,ATCGCGCA,-0.178
15,GAACACAA,0.00401
16,AAGCCATC,0.00583
17,ATGCTGAA,0.0472
18,CAGCCGAC,-0.218
19,ATTAGTTA,0.344
20,AGACCTGA,-0.0516
21,CACGTCCA,-0.234
22,TCCTTAGA,-0.173
23,TGATATAA,0.179
24,ATCCCCTG,-0.205
25,ACTACAGA,0.268

row,Sequence,PBM E-score
1,ACTGCTTG,-0.0147
2,AAAACGAG,0.0327
3,CGTCAGTA,-0.118
4,CCGGCGAG,-0.184
5,GAGGGAGC,-0.285
6,AGGTTTAA,0.137
7,ACATGGAG,-0.135
8,GAGCTCCA,-0.146
9,ACAAGTGT,0.117
10,AGCATCAC,-0.131
11,ATAATTAA,0.414
12,GCACCGCC,-0.263
13,AGCAGGGC,-0.273
14,ACGATCTG,-0.123
15,CTGGTATC,0.128
16,CGCCCTGA,0.0278
17,GCATGAAA,0.172
18,GATCGGTA,0.0772
19,AAGACATT,-0.109
20,AAGAACCG,0.18
21,CATCTCTA,0.0677
22,ACATTCCT,-0.018
23,CCAGCACG,-0.114
24,AGCCGAAC,-0.166
25,CCCCCAAG,-0.15

row,Sequence,PBM E-score
1,GCGGTTCA,-0.0458
2,GCAACCTA,0.056
3,GACCGCAA,-0.0488
4,TGGGACAA,0.0696
5,CGCCGATC,-0.0951
6,ATAAACAC,0.241
7,GCCAAAAA,0.212
8,ACGAACAG,-0.146
9,ATGCACGA,-0.021
10,CACAAACC,-0.139
11,CCTCCAGG,-0.322
12,ACTTCTAT,0.191
13,AACTACAT,0.188
14,CTCAGGAC,-0.113
15,TGACTAAA,0.0305
16,CTTGATGA,0.197
17,CTAAATAC,0.244
18,TAACCAAA,0.186
19,TGGGCCCA,-0.281
20,CCGACATA,-0.03
21,ACTAGGTA,0.0345
22,AAAAGGCT,0.0191
23,ACCGTCGA,-0.21
24,ATTGAGAA,0.133
25,GGCGTAAA,0.138

row,Sequence,PBM E-score
1,CGTCGAAG,-0.0262
2,ACCTGTCG,-0.123
3,AGTGGTAA,0.143
4,CGAAGATC,-0.0525
5,CGTCCATC,-0.0544
6,CTAGTGCC,-0.156
7,GACAAGGA,-0.025
8,AAACTCTT,0.0712
9,AGGATACA,-0.0131
10,GTGGCGGA,0.0388
11,CCTTGGAA,0.183
12,ACCCAAGC,-0.293
13,GAACGGGA,-0.0404
14,CGAAGAAG,-0.0565
15,AATCCGTC,0.158
16,AGAAATCC,0.0392
17,AGGGATTA,0.187
18,ACTACCAC,0.147
19,CCTGAGCA,-0.075
20,AGTCTCAA,-0.113
21,GAGTGGCA,-0.1
22,ACTACCTG,0.0162
23,GTACACAC,0.158
24,ACAAGGCA,-0.0526
25,CAGCCACG,-0.025

row,Sequence,PBM E-score
1,CCCCCATC,-0.185
2,CCTAATTA,0.108
3,AATCCGGC,0.0673
4,GTCCTTAA,-0.0118
5,CGTAATAG,0.072
6,TAGGTCAA,0.00894
7,ATAGTCTA,0.072
8,TCCGTCCA,0.1
9,CCACCTGC,-0.11
10,CAGTCATC,-0.26
11,CGTACCGA,-0.0339
12,CCTTTCTC,-0.11
13,CTGCATCC,-0.0871
14,ACAAACAA,0.203
15,ATATATTC,0.326
16,GGGTATTA,0.0508
17,ACGAGGTC,0.0631
18,ACCCGAAA,0.0532
19,AGCATTAT,0.207
20,GCGGGTAA,-0.107
21,CATAGAGG,0.00683
22,GGCCGTAC,-0.0178
23,ATACCGAG,-0.118
24,CGTCATGA,-0.0962
25,ATATGTGC,-0.0166

row,Sequence,PBM E-score
1,AATTAGGC,0.154
2,CGTGAACA,0.00947
3,CTCATTTC,0.0132
4,ACTGGTAC,-0.141
5,ATTTGCCC,-0.146
6,CCCTCCTC,-0.237
7,ACCACTCG,0.0665
8,GTAGTGGA,0.0676
9,AGTCTTTG,0.0289
10,AAATAAGT,0.295
11,ATAGCAGC,-0.127
12,ATACATAC,0.0684
13,ACCCTAGC,-0.263
14,TAACAGCA,0.18
15,ACGGTTAG,-0.124
16,GCTGAGGA,-0.194
17,AACAGCAC,0.0684
18,AGGAATGC,-0.0532
19,AATCCGAG,-0.0191
20,CTTTGACC,0.104
21,TCTTTCAA,-0.046
22,GGCCTTGA,-0.0647
23,CGGATTCA,0.00016
24,GCATCGGA,0.0661
25,AATCTCTC,0.16

row,Sequence,PBM E-score
1,ACGTACCA,0.0664
2,GAGCTTCA,0.0668
3,AGTTTCTG,0.141
4,GTTTTGCA,0.0627
5,AGCTCTCA,-0.135
6,CGAACGAA,0.198
7,CTAAGCAA,-0.00495
8,AAGCTCTG,-0.0801
9,GTTTAGTA,0.22
10,ACGAATTG,0.0671
11,GCGGTTAC,0.0342
12,CAAGTTTA,0.16
13,GATCGAAC,-0.149
14,CCCAGTGC,-0.0946
15,CACATCTA,0.213
16,GTACCCAA,-0.0659
17,CTGCCCTC,-0.315
18,CAGAACCC,-0.176
19,AGTATACC,0.0685
20,GACTAGTC,-0.222
21,GCGACCAC,-0.172
22,AGAACCGA,-0.0242
